In paper PMC6212790 one finds binding signal data, which are given here for 172 sequences.

The other results are listed elsewhere or left out. At the low end of the ranking the order means little.

In the assay the target is T1, GST-Rok-C97-191 (UniProt O34857).
T1 sequence: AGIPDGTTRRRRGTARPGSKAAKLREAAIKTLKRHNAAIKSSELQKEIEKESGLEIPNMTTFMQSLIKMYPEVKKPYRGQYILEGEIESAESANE
As to the kind of experiment: protein binding microarray.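 Also: rank score from −0.5 (least bound) to 0.5 (best bound).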 The note with it: Rok is a gene silencer of Bacillus subtilis; high values mean tight binding; most listed sequences are background and not binding sites; double strand, one strand shown.
TAACGAGA showed a binding signal of 0.0117 E-score.

The sequence GAATCTGC showed a binding signal of 0.0609 E-score. CTACTAAG yielded a binding signal of 0.261 E-score. As to CCCCAGCA, the binding signal is -0.234 E-score. CAACTAGG came in with a binding signal of 0.156 E-score. On to CCACTTAC, for which the binding signal came out at 0.102 E-score.

As to ACGGATGG, the binding signal is -0.179 E-score. To CGAGTACA belongs 0.00587 E-score; to ACTTCTCA, 0.153 E-score; to CTCCAAAA, -0.0105 E-score. Turning to TCCTGAAA, the binding signal is -0.138 E-score.

Sequence AACCGTCA showed a binding signal of -0.152 E-score. CCCGACGG: the binding signal is -0.0646 E-score. In the case of GATTGACA, the binding signal is -0.0762 E-score.

Sequence ATTTGATA had a binding signal of 0.185 E-score. Regarding CCCAGACA, the binding signal is -0.285 E-score. For the sequence AGGTAATA, the binding signal was determined as 0.328 E-score. AAGCAAAC registered a binding signal of 0.141 E-score. Consider TACGATAA, for which the binding signal was determined as 0.259 E-score.

Sequence AGGATGCG had a binding signal of -0.123 E-score. In turn, ACTCTGCA had a binding signal of -0.192 E-score.

Sequence GTTCGGGA displayed a binding signal of -0.0165 E-score. The sequence CGGGCTGA came in with a binding signal of -0.0375 E-score. GTCTTCAC: the binding signal was -0.002 E-score. AAACACCA registered a binding signal of 0.00755 E-score. As for CGGTCTCC, the binding signal was -0.172 E-score. On to ACGTTTGA, for which the binding signal is -0.0847 E-score.

In turn, GGCGGAAC returned a binding signal of -0.23 E-score.

For AGGGGCAG, the binding signal was -0.203 E-score.

Sequence CCGGATAC had a binding signal of -0.122 E-score. AACCCACC came in with a binding signal of -0.282 E-score. As for ACCGCCGC, the binding signal was -0.0671 E-score. To AGCTGATC belongs 0.0488 E-score. As to TGAGGGCA, the binding signal is -0.329 E-score. To CGTGTCAA belongs -0.26 E-score; to CGTTTGTC, -0.0237 E-score; to TGCCTACA, 0.00909 E-score.

As to GATGTGGA, the binding signal is -0.0761 E-score.

AGCTCTAC showed a binding signal of -0.0441 E-score. With ACAATTTC, the binding signal was found to be 0.116 E-score. CCGTCTCA returned a binding signal of -0.181 E-score. In turn, ACGTAAGC returned a binding signal of -0.115 E-score. For ACAGCCGG, the binding signal was -0.361 E-score.

The sequence ACTGCCAT gave a binding signal of -0.216 E-score. On to CAATAAAA, for which the binding signal stood at 0.239 E-score.

Sequence GGCCAGCC showed a binding signal of -0.353 E-score. On to ATATCGCG, for which the binding signal stood at 0.227 E-score. ACTGGCGC returned a binding signal of -0.135 E-score.

Turning to CTTAGCTA, the binding signal came to 0.178 E-score.

Turning to CACGCACC, the binding signal is -0.101 E-score. To AATTAAAA belongs 0.259 E-score.

Consider ATTATGGG, for which the binding signal was 0.0918 E-score. Sequence ATTTGCTA returned a binding signal of 0.17 E-score. As to CACATCAC, the binding signal is -0.0514 E-score. Regarding GCATGTTA, the binding signal is 0.0297 E-score.

AGCGTTAT yielded a binding signal of 0.00996 E-score. CGGTACAC came in with a binding signal of 0.0478 E-score. In turn, TGCCTCAA gave a binding signal of -0.08 E-score.

In turn, GCGTAGCA returned a binding signal of -0.222 E-score. Turning to CCACATGA, the binding signal was 0.0378 E-score. GCCGTATA yielded a binding signal of -0.103 E-score.

TTGTACAA returned a binding signal of 0.342 E-score. As for GCGAAGGA, the binding signal is -0.246 E-score.

Sequence CGCATAAG came in with a binding signal of -0.00117 E-score. The figure for CCTTTGAG is -0.221 E-score. The figure for CATCTAAA is 0.111 E-score; for GTGCCACA it is -0.242 E-score. The figure for CGTTAGTC is 0.108 E-score; for CTAAAAAC it is 0.0687 E-score; for CGTTACGC it is -0.0756 E-score. As to GTTCAAAC, the binding signal was -0.183 E-score.

GACGGTAA gave a binding signal of 0.0966 E-score. For the sequence TAATGTAA, the binding signal was 0.357 E-score. Take ATAAGGCA: the binding signal amounted to 0.0952 E-score. The sequence AGTAGACG came in with a binding signal of -0.0652 E-score. Take AAAGCACA: the binding signal was -0.0242 E-score. To AGTTAAAG belongs -0.015 E-score; to GTTAAACA, 0.0896 E-score; to AGTTACAA, 0.163 E-score. As to CAGCGCCG, the binding signal was -0.341 E-score. The sequence ATACCGTG showed a binding signal of 0.206 E-score. The figure for ATTGCGAA is 0.178 E-score; for CTTCTCCC it is -0.124 E-score. As to AATGGTTG, the binding signal is -0.113 E-score. The sequence TCCCTCCA had a binding signal of -0.323 E-score. For ACGATAGT, the binding signal came out at 0.235 E-score.

Turning to CCGATCGG, the binding signal was -0.181 E-score. In turn, CAATAACC returned a binding signal of 0.00883 E-score. The figure for CGAAGCGA is -0.0591 E-score; for ACAATTCA it is -0.0909 E-score; for ACTCACTA it is 0.134 E-score.

AGTGTTTA: the binding signal is -0.00335 E-score. The figure for GCAAAGGA is -0.136 E-score; for ATATGTTC it is 0.238 E-score; for GAGGTGGC it is -0.214 E-score. CAAGCCAC: the binding signal is -0.255 E-score. Turning to GTTCCAAC, the binding signal is -0.0996 E-score. In the case of CAGTGGAC, the binding signal was -0.144 E-score. The figure for GTTCACGA is -0.05 E-score; for CCCGGTCA it is -0.121 E-score; for AGTAAGCG it is 0.054 E-score.

In turn, GAATATGA returned a binding signal of 0.126 E-score.

Sequence CTCACCCA yielded a binding signal of -0.0563 E-score. In turn, CGTTCTGC displayed a binding signal of -0.202 E-score. In turn, AACGGATC yielded a binding signal of -0.0204 E-score. To ATCGTCAA belongs 0.0641 E-score.

GACCGGGC displayed a binding signal of -0.375 E-score. Regarding TACGCAGA, the binding signal was -0.138 E-score. The figure for GGAATACC is 0.106 E-score; for GGACCTAC it is 0.0794 E-score; for CCTATACA it is 0.159 E-score. Regarding CATCTCGG, the binding signal was -0.0491 E-score. GCCCAGAA returned a binding signal of -0.221 E-score. Take CAACGACG: the binding signal is -0.122 E-score. CGCGTAAC had a binding signal of 0.167 E-score. Sequence AAGTAGAC displayed a binding signal of 0.021 E-score. Sequence CCAGACCA displayed a binding signal of -0.253 E-score. Consider ATGGCGAG, for which the binding signal is -0.164 E-score. In turn, AATACATG displayed a binding signal of 0.2 E-score. Take AAGATGGA: the binding signal was -0.195 E-score.

GTTCTCCA displayed a binding signal of -0.0391 E-score. In the case of CGTCACAC, the binding signal is -0.165 E-score. In turn, ATGCATAA had a binding signal of 0.165 E-score.

With CTTGCAAA, the binding signal is -0.06 E-score. In the case of CAAACCGG, the binding signal is 0.137 E-score. The figure for CAGACTCC is -0.0644 E-score; for CCCACTCA it is -0.0258 E-score; for CTGGTCAA it is 0.00605 E-score.

For the sequence AGATTCTC, the binding signal amounted to 0.00255 E-score. Sequence CGGATACA had a binding signal of 0.059 E-score.

With AGCGGAAC, the binding signal is -0.102 E-score. In the case of ATGGCCCA, the binding signal is -0.0422 E-score. For the sequence CAAAATTC, the binding signal came out at 0.0531 E-score. With CCCGAGCG, the binding signal is -0.271 E-score. For the sequence CGCTACAC, the binding signal was -0.0491 E-score. CGAAACGC registered a binding signal of -0.312 E-score. As to GCTCCACC, the binding signal was -0.192 E-score.

CAGCCTCG yielded a binding signal of -0.271 E-score. ACATTGTA yielded a binding signal of 0.241 E-score.

Sequence CTAAAGAA displayed a binding signal of 0.0845 E-score. Sequence CGAGCACA yielded a binding signal of 0.0472 E-score.

In turn, GGGCGCAA returned a binding signal of -0.203 E-score. ACACACGT came in with a binding signal of 0.0415 E-score. ATTAACTA: the binding signal came out at 0.367 E-score. Sequence GAGTATAA gave a binding signal of 0.0557 E-score.

Take CCGGTGCA: the binding signal was -0.239 E-score. To AGTCACCC belongs -0.348 E-score; to GGGTTATA, -0.0341 E-score; to GCTCAAGA, -0.113 E-score. As to GGAGTCAA, the binding signal was -0.113 E-score. The figure for AGCATCGG is -0.0833 E-score; for AATTCCTA it is 0.155 E-score; for CCTCCCCC it is -0.317 E-score.

As to CTGAGCGC, the binding signal is -0.0319 E-score. To CAATTGCG belongs 0.225 E-score; to GCCGAAAC, -0.0745 E-score; to ACAATGAC, -0.102 E-score.

In turn, CATTAATA displayed a binding signal of 0.186 E-score. GCACCAGC returned a binding signal of -0.0944 E-score. To CACTAGGA belongs 0.129 E-score.

As for AGGCCGAG, the binding signal was -0.362 E-score. GAGACGAC returned a binding signal of -0.273 E-score. For the sequence CCGTCGTA, the binding signal was -0.0115 E-score.

As to GAGAATCA, the binding signal amounted to 0.109 E-score. To CCATTAGG belongs -0.236 E-score; to CGTGCCAC, -0.181 E-score; to TCGATACA, 0.126 E-score. Sequence ATACCGAG displayed a binding signal of 0.045 E-score. CCCCGAGG had a binding signal of -0.203 E-score. In the case of CGCGAACA, the binding signal was -0.00689 E-score. Take CTACTACC: the binding signal was found to be 0.363 E-score. For the sequence CAGCTCGA, the binding signal was -0.0924 E-score.
